Reference: PubChem BioAssay AID504706 (National Center for Advancing Translational Sciences (NCATS), 2011)
Among all 320,000 compounds or so, about 200 (0.062%) were called active. This list was built around the results that the source calls inconclusive (neither active nor inactive); the mix of calls is not that of the screen. The call rests on the fitted dose curve; in most records, active means well fitted activation curve with a large enough effect; inconclusive means small, poorly fitted or top-dose-only effect; inactive means no such curve, though single readings can be large or run the other way. Potencies of inconclusive entries are left out as doubtful fits.

Test: qHTS assay for re-activators of p53 using a Luc reporter; further: nearly all actives have a fitted effect of over 45% in size; on activity change, positive = activation: % of control where 0% means no effect
Conditions: H1299 p53-A138V BP100-luciferase reporter, luminescence, 24 h; series mostly up to 92.2 µM; activity change, positive = activation: at the top concentration
Procedure, shortened: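 H1299 (p53-null), stable ts p53-A138V + BP100-Luc; 1000 cells/well, Opti-MEM/10% FBS; cpd 4 pt, 1:5; 24 h, 37 deg C, 5% CO2; detection reagent 10 min RT; luminescence.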
Potency means the concentration at half of the fitted maximal effect; tags describe the fitted curve by direction and shape.

SMILES	Potency	activity change, positive = activation
COc1ccc(C(=O)NC23CC4CC(CC(C4)C2)C3)cc1OC	inconclusive [activator, partial curve, poor fit]	–
CCCCn1c2ccccc2c2nnc(SCC(=O)NC3=NN=C(c4ccccc4)CS3)nc21	inconclusive [activator, single point]	–
Cc1ccc(/C=C2/NC(=O)N(Cc3ccc(Br)cc3)C2=O)o1	–	inactive: -10.5%
COc1cc(OC)cc(-c2c(-c3cccs3)c3cc(-c4ccc(C(N)=O)cc4)ccc3n2C)c1	–	inactive: -2.05%
O=C(CCCC(=O)c1ccc(O)cc1)c1ccc(O)cc1	inconclusive [activator, partial curve, poor fit]	–
COc1ccc(/C=N/Nc2ccccn2)cc1O	inconclusive [activator, partial curve, poor fit]	–
Oc1c(C=Nc2cccc3cccnc23)sc2ccccc12	inconclusive [activator, partial curve, poor fit]	–
CCOC(=O)/C(=C/c1ccc(N2CCC(c3ccccc3)=N2)cc1)C(C)=O	inconclusive [activator, partial curve, poor fit]	–
CCCC(=O)N1c2ccc(-c3csc(N)n3)cc2CC1C (stereo not drawn)	inconclusive [activator, full curve, poor fit]	–
Cn1c(=O)nc2n(Cc3ccccc3)c3cccc(Cl)c3cc-2c1=O	inconclusive [activator, single point]	–
CC(=O)c1ccc(Oc2ccc(C(C)=O)cc2)cc1	inconclusive [activator, partial curve, poor fit]	–
CC(=O)c1c(C)[nH]c(C(=O)Nc2ccc(C)c(S(=O)(=O)N(C)C)c2)c1C	inconclusive [activator, full curve]	–
CCOC(=O)NC1(Nc2ccc(C)cc2)Oc2ccccc2O1	inconclusive [activator, full curve, poor fit]	–
CCN(CC)CCCNC(=O)c1oc2ccc(S(=O)(=O)N3CC(C)CC(C)C3)cc2c1C (stereo not drawn)	–	inactive: 7.94%
O=C(CNC(=O)c1cccc(F)c1)N/N=C/c1cc(Br)ccc1OC(=O)/C=C/c1ccco1	inconclusive [activator, partial curve, poor fit]	–
NC(=O)c1c(NC(=O)C2CCCO2)sc2c1CCCC2 (stereo not drawn)	inconclusive [activator, single point]	–
CCOc1ccccc1N1CC(C(=O)Nc2ccc3c(c2)OCCO3)CC1=O (stereo not drawn)	–	inactive: -0.935%
c1cncc(-c2nc(-c3ccc4c(c3)OCO4)cs2)c1	inconclusive [activator, full curve, poor fit]	–
CC(C)(O)C#Cc1ccc(C(=O)NC2CCCCC2)s1	–	inactive: 5.46%
Cc1nn(-c2ccc(F)cc2)c(Cl)c1/C=N/NC(=O)c1cccs1	inconclusive [activator, partial curve, poor fit]	–
Cc1ccc(COc2ccc(C)nc2[N+](=O)[O-])cc1	inconclusive [activator, partial curve, poor fit]	–
CCc1ccc(OCc2ccc(C(=O)O)o2)cc1	–	inactive: -11.5%

SMILES	Potency	activity change, positive = activation
Cc1sc2nc3ccc(N4CCCCC4)nn3c(=O)c2c1C	inconclusive [activator, single point]	–
CC(C)(C)c1ccc(C(=O)NNC(=S)NCC2CCCO2)cc1 (stereo not drawn)	–	inactive: 6.13%
CN(C)c1ccc(C(CNS(=O)(=O)c2ccc(F)cc2)c2c[nH]c3ccccc23)cc1 (stereo not drawn)	inconclusive [activator, single point]	–
C[C@H](CO)N1C[C@H](C)[C@@H](CN(C)C(=O)Nc2ccc3c(c2)OCO3)Oc2ccc(NC(=O)Nc3ccc4c(c3)OCO4)cc2C1=O	inconclusive [activator, single point]	–
O=C(N/N=C/C(Br)=C/c1ccccc1)c1ccccc1F	inconclusive [activator, partial curve, poor fit]	–
CN1N=C(/C=C/c2ccccc2)CCC1=O	–	inactive: 9.05%
COc1ccc(CN2CCN(Cc3cc(=O)oc4cc(C)ccc34)CC2)c(OC)c1OC	–	inactive: -5.18%
O=c1c2ccccc2nc2sc(Nc3ccc(F)cc3)nn12	inconclusive [activator, full curve, poor fit]	–
Cc1nc2ccc(NC(=O)CCC3CCCC3)cc2s1	inconclusive [activator, full curve, poor fit]	–
CC(C)CN1CN(Cc2ccccc2)CNC1=S	–	inactive: -0.224%
CCCc1cc(NCCCn2ccnc2)n2nc(C)c(-c3ccccc3)c2n1	–	inactive: -6.74%
O=C(Nc1cccnc1Cl)C1CCCN(c2ncnc3c2nc2n3CCCCC2)C1 (stereo not drawn)	–	inactive: -3.25%
CCCC(=O)Nc1ccc(-c2nc3cc(C)ccc3o2)cc1	inconclusive [activator, partial curve, poor fit]	–
COc1ccc(/C=N/Nc2nc3ccccc3[nH]2)c(OC)c1OC	inconclusive [activator, single point]	–
COc1ccc(C(=O)/C=C/c2ccc(OC)c(O)c2)c(F)c1	inconclusive [activator, partial curve, poor fit]	–
O=C(c1ccc2nc(Cc3ccccc3F)oc2c1)N1CC[C@H](O)C1	inconclusive [activator, partial curve, poor fit]	–
COc1cc2c(cc1NC(=O)C1CCCO1)oc1ccccc12 (stereo not drawn)	inconclusive [activator, partial curve, poor fit]	–
CC(=O)n1cc(/C=N/NC(=O)c2ccccc2O)c2ccccc21	–	inactive: 19.6%
O=C(CSCC(=O)N1CCCCC1)Nc1nc(-c2ccc(Cl)s2)cs1	inconclusive [activator, full curve, poor fit]	–
CC(=O)Nc1ccc(-c2cc(N)n(-c3ccccc3)n2)cc1	inconclusive [activator, partial curve, poor fit]	–
Cc1csc(NC(=O)CSc2nc(C)cs2)n1	inconclusive [activator, partial curve, poor fit]	–
